According to the supplement of paper PMC10441789:
The list shows a part of the results. Antibody binding of pooled human sera (four to six donors per pool; dilution not stated) to peptides of the Trypanosoma cruzi antigen TSSA on microarrays. Quantile-normalised fluorescence in arbitrary units, mean of duplicate arrays; higher = more binding. No active / inactive call. The uninfected pools are read here as the healthy donors of the same country. The strongest signals lie near the top of the scale (about 60,000).

Experiments:
Experiment in all cases: antibody binding signal (normalised fluorescence) (arbitrary fluorescence units); higher = stronger serum antibody binding to peptide
[1] = system: pooled sera of chronic Chagas disease patients, Argentina
Protocol: (§1)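 Microarray of 15-residue peptides over residues 30-55 of Trypanosoma cruzi TSSAII, each with 1 to 10 substitutions at naturally variable positions, probed with one serum pool per country.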

[2] = system: pooled sera of chronic Chagas disease patients, Bolivia
Protocol: as §1

[3] = system: pooled sera of chronic Chagas disease patients, Brazil
Protocol: as §1

[4] = system: pooled sera of chronic Chagas disease patients, Colombia
Protocol: as §1

[5] = system: pooled sera of chronic Chagas disease patients, Mexico
Protocol: as §1

[6] = system: pooled sera of chronic Chagas disease patients, USA
Protocol: as §1

[7] = system: pooled sera of uninfected people, Argentina
Protocol: as §1

[8] = system: pooled sera of uninfected people, Bolivia
Protocol: as §1

[9] = system: pooled sera of uninfected people, Brazil
Protocol: as §1

[10] = system: pooled sera of uninfected people, Colombia
Protocol: as §1

[11] = system: pooled sera of uninfected people, Mexico
Protocol: as §1

[12] = system: pooled sera of uninfected people, USA
Protocol: as §1

Sequence | antibody binding signal [1] | antibody binding signal [2] | antibody binding signal [3] | antibody binding signal [4] | antibody binding signal [5] | antibody binding signal [6] | antibody binding signal [7] | antibody binding signal [8] | antibody binding signal [9] | antibody binding signal [10] | antibody binding signal [11] | antibody binding signal [12]
GTDKKAATGGTPSQP | 459 | 423 | 867 | 3450 | 703 | 854 | 346 | 183 | 593 | 629 | 733 | 127
GTEKKPATGETPSQS | 30900 | 18600 | 31400 | 1590 | 2280 | 22700 | 220 | 1150 | 1250 | 388 | 1850 | 803
SGKDNKPATGGTPSP | 944 | 270 | 9140 | 965 | 954 | 1360 | 495 | 645 | 203 | 439 | 170 | 128
KEKKAAAGGTPSPPG | 180 | 226 | 133 | 2420 | 135 | 1210 | 111 | 64 | 1570 | 127 | 93 | 100
TEKKPATGETPSQSG | 32800 | 26300 | 32500 | 314 | 309 | 21200 | 220 | 414 | 386 | 187 | 1830 | 399
KDKKAAAGGTPSPSG | 231 | 192 | 203 | 1670 | 287 | 1140 | 91.6 | 102 | 738 | 125 | 77.3 | 77.4
SGKENKPAAGEAPSQ | 4990 | 16700 | 31200 | 3820 | 4680 | 18700 | 7590 | 5030 | 181 | 259 | 629 | 158
TDNKPAAGGTPSPPG | 1380 | 198 | 1070 | 1020 | 210 | 205 | 98.7 | 583 | 757 | 602 | 365 | 102
KEKKAAAGGAPSQSG | 155 | 186 | 178 | 1400 | 153 | 200 | 102 | 79.8 | 98 | 87.4 | 75 | 80.2
SGTENKPATGGTPSQ | 45700 | 18600 | 34400 | 638 | 1250 | 7380 | 748 | 1840 | 385 | 267 | 421 | 163
SGKDNKAATGGAPSQ | 791 | 230 | 1860 | 1140 | 1030 | 1380 | 259 | 193 | 139 | 241 | 86 | 108
STPPSGKDNKTATGE | 14700 | 22000 | 11100 | 1790 | 19400 | 4390 | 400 | 661 | 224 | 378 | 98.4 | 125
TPPSGKEKKAAAGGA | 5010 | 418 | 1060 | 1550 | 25900 | 1110 | 418 | 342 | 813 | 186 | 105 | 143
PPSGTEKKPAAGEAP | 35500 | 22000 | 36200 | 785 | 5020 | 13300 | 1120 | 633 | 687 | 345 | 331 | 462
PSGKDNKTAAGGTPS | 3450 | 672 | 3270 | 9270 | 7200 | 4740 | 270 | 143 | 202 | 139 | 331 | 140
GKDNKAAAGGAPSPS | 3010 | 977 | 1420 | 7340 | 6110 | 3440 | 196 | 286 | 97 | 172 | 93.8 | 103
KKTATGGAPSPPGAS | 580 | 275 | 309 | 1760 | 243 | 564 | 394 | 247 | 96.9 | 167 | 175 | 361
GTEKKAAAGGAPSPS | 351 | 167 | 394 | 4530 | 757 | 868 | 165 | 373 | 209 | 138 | 107 | 112
GKDKKAAAGGAPSQS | 227 | 197 | 165 | 2090 | 731 | 421 | 113 | 93.6 | 99.3 | 96.9 | 83 | 91.3
GKEKKPATGGAPSQP | 2420 | 392 | 6440 | 1510 | 1830 | 3020 | 209 | 242 | 101 | 95.1 | 99.8 | 302
